The results in this text go back to US6506874.

For orientation: IC50 means the concentration needed to halve the response being measured.

Assay [1] has as its target T1, recombinant human IGFBP-3 (human, UniProt P17936).
T1 construct: Secreted recombinant protein
Briefly: competitive phage ELISA, soluble IGFBP-3. On the procedure: (§1) Phage particles were harvested and resuspended in PBS buffer as described in Lowman, H. B., "Phage Display of Peptide Libraries on Protein Scaffolds," in Cabilly, S. (ed.), *Combinatorial Peptide Library Protocols* (Humana Press Inc.: Totowa, N.J., 1998), pp. 249–264. Then phage concentrations were normalized to yield a maximal ELISA signal of 0.2–0.4 for each mutant (Lowman, in Cabilly, S. (ed.), supra). Threefold serial dilutions of soluble competitor were prepared on non-absorbent microtiter plates (Nunc, F, 96 wells) with binding buffer (0.5% TWEEN™ 20/PBS) containing phage at the previously-determined concentrations. The dilution range of competitor protein extended over six orders of magnitude, starting at 5 μM for IGFBP-1 and 500 nM for IGFBP-3. After blocking, the plates containing immobilized target were washed with 0.05% TWEEN™ PBS buffer and subsequently incubated with 80 μl/well of the premixed phage-competitor solutions for 1 hour at room temperature. […] Numbers in Table I represent mean ±standard deviation of individually assessed $IC50$ values.
(§2) At least two different clones of every mutant were tested.
On the technique in general: An ELISA detects its analyte on a solid surface through an enzyme-linked reagent.

Assay [2] concerns the target T2, human IGFBP-1 (human, UniProt P08833 26-259).
T2 construct: Secreted recombinant protein
T2 sequence (looked up): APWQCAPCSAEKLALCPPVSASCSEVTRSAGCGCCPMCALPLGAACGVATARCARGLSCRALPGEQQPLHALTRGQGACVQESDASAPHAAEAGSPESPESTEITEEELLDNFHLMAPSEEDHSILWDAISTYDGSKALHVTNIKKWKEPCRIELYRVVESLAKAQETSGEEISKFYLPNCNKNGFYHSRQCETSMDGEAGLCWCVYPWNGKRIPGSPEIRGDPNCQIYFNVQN
The experiment in a line: competitive phage ELISA, soluble IGFBP-1. How it is done:
as §1, §2

The target of assay [3] is T2, human IGFBP-1. The experiment in a line: competitive phage ELISA. On the procedure: as §1, §2

T1 sequence (P17936 28-291 limits assumed): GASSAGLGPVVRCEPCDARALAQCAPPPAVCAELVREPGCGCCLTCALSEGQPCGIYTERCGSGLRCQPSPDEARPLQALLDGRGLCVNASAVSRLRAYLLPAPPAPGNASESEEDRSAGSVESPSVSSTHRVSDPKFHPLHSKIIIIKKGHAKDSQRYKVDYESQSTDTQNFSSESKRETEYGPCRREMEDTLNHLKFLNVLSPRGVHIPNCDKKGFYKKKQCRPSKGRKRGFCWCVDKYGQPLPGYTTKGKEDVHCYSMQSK

B1: IGF-I G1S-A70V displayed on phage (ligand, not shown: large carriers; small tags and cut ends)
chain: not shown
notes: Template of the alanine scan (vector pIGF-g3); also called GIS-A70V; G1S-A70V IGF-I
In the case of B1, the IC50 in assay [1] amounted to 0.75 nM; with human IGFBP-1 [2] it was 8.2 nM.

B2: IGF-I S1G (on G1S-A70V) displayed on phage (ligand, not shown: large carriers; small tags and cut ends)
chain: not shown
Consider B2, for which the IC50 in assay [1] worked out at 0.99 nM; with human IGFBP-1 [2], 11.2 nM.

B3: IGF-I S1A (on G1S-A70V) displayed on phage (ligand, not shown: large carriers)
chain: not shown
notes: S1A is printed against the G1S-A70V template
For B3, in the assay with human IGFBP-1 [3], the “fold increase in binding” value is ~2 fold. The figures for the IC50 (in assay [1]; in the assay with human IGFBP-1 [2]) were 0.91 nM and 5.2 nM, respectively.
